Some of the results follow. Values were computed here from the reads of four pooled replicates and scatter widely.

The target of this experiment is T1, Pho4 (S. cerevisiae) (UniProt P07270).
T1 sequence: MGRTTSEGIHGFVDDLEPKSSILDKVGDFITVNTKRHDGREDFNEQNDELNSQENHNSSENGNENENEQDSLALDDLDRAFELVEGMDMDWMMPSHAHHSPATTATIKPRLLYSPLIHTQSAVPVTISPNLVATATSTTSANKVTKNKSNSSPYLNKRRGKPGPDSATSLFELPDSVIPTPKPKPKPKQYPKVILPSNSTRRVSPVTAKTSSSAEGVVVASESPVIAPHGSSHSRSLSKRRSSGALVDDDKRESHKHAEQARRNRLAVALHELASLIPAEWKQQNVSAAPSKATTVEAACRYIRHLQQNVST
The experiment in a line: relative binding free energy (BET-seq); higher = weaker binding. The following applies: reference: library average.
TATATCACGTGGTAAG: the “relative binding free energy” value came out at 0.21 kcal/mol. TTTCTCACGTGGTTGG: the “relative binding free energy” value worked out at 0.17 kcal/mol.

On to TGTAGCACGTGCGAGG, for which the “relative binding free energy” value is -0.03 kcal/mol.

Consider GCTTGCACGTGGATAT, for which the “relative binding free energy” value is 0.14 kcal/mol. In the case of GGCGACACGTGTGGGT it was 0.16 kcal/mol; in that of TATGCCACGTGTTATT, -0.08 kcal/mol; in that of AGGATCACGTGGGTAA, 0.03 kcal/mol. In the case of CGCTTCACGTGGAAGG it was 0.23 kcal/mol. In the case of ATAGTCACGTGTCGAT it was 0.12 kcal/mol; in that of CCGGGCACGTGAGGGC, 0.15 kcal/mol; in that of AGTGTCACGTGTGTGC, 0.07 kcal/mol. With GGACGCACGTGGGAGA, the “relative binding free energy” value is -0.1 kcal/mol. With TTTGCCACGTGTTTTG the figure was -0.14 kcal/mol. With TGGGTCACGTGGAATT, the “relative binding free energy” value amounted to 0.23 kcal/mol. With CATATCACGTGTGTTG, the “relative binding free energy” value was 0.23 kcal/mol. With TTTAGCACGTGTGAAG the figure was 0.04 kcal/mol; with GTTGTCACGTGTGCTG, 0.08 kcal/mol; with TGTGCCACGTGGATAG, 0 kcal/mol.

With CGTAGCACGTGGTTAG, the “relative binding free energy” value was -0.05 kcal/mol. With TTCTGCACGTGGTCGG the figure was -0.1 kcal/mol; with GAAGACACGTGAGTTG, 0.39 kcal/mol; with TGTGGCACGTGAGGCG, 0.04 kcal/mol.

For the sequence AGTCGCACGTGGGGAG, the “relative binding free energy” value was -0.09 kcal/mol. With GAAAGCACGTGGTGGG the figure was -0.01 kcal/mol. In the case of CATGGCACGTGGGAGG it was -0.17 kcal/mol; in that of TGAAACACGTGAGGTG, 0.09 kcal/mol. Consider TTGCTCACGTGTATTA, for which the “relative binding free energy” value turned out to be 0.32 kcal/mol.

As for AGTTTCACGTGAGGAG, the “relative binding free energy” value was found to be 0.46 kcal/mol. Turning to TGATGCACGTGCAGTT, the “relative binding free energy” value was found to be 0.04 kcal/mol. For the sequence ATATGCACGTGGAAGA, the “relative binding free energy” value is -0.03 kcal/mol. With GTCTGCACGTGTTGAT the figure was 0.03 kcal/mol; with TGACACACGTGGATTG, 0.2 kcal/mol. On to TTTTGCACGTGACGTC, for which the “relative binding free energy” value turned out to be 0.17 kcal/mol.

With TTAGGCACGTGAAAGG, the “relative binding free energy” value was 0.04 kcal/mol. In the case of TTTTGCACGTGGCGTG it was -0.01 kcal/mol; in that of TTAGACACGTGGGTGC, -0.12 kcal/mol; in that of TTTTGCACGTGCTTAA, 0.02 kcal/mol.

With GTGTTCACGTGTGCAA, the “relative binding free energy” value is 0.27 kcal/mol. Consider ATAGACACGTGTTAGT, for which the “relative binding free energy” value turned out to be 0.08 kcal/mol.

Take TGATCCACGTGTGTGA: the “relative binding free energy” value is 0.03 kcal/mol. Take GAGGTCACGTGCGGAG: the “relative binding free energy” value was 0.22 kcal/mol. Turning to GGGGTCACGTGGAGGA, the “relative binding free energy” value was determined as 0.17 kcal/mol. With TGTTACACGTGTAGAG the figure was 0.21 kcal/mol; with TTGGTCACGTGCTGGT, 0.13 kcal/mol; with TGGAGCACGTGAGGCT, 0.02 kcal/mol. TGTTACACGTGTTCAA: the “relative binding free energy” value worked out at 0.19 kcal/mol. With TGTTTCACGTGCTTTC the figure was 0.15 kcal/mol.

Regarding TTCGACACGTGAATGG, the “relative binding free energy” value was 0.24 kcal/mol. As to GGTTTCACGTGAGGGG, the “relative binding free energy” value is 0.47 kcal/mol.

Turning to AGGGACACGTGGGGGA, the “relative binding free energy” value is -0.18 kcal/mol. In the case of GCAGGCACGTGGTTTG it was -0.12 kcal/mol; in that of TGTATCACGTGACAGT, 0.06 kcal/mol. With GCAGGCACGTGGTTTA the figure was -0.23 kcal/mol; with AGTTGCACGTGTGTAT, -0.02 kcal/mol. In the case of AGTTACACGTGATGGT it was 0.15 kcal/mol. For ATGCCCACGTGTGGGT, the “relative binding free energy” value is -0.2 kcal/mol. In the case of CGTGCCACGTGTCGGG it was -0.04 kcal/mol; in that of TGGATCACGTGAAAGA, 0.54 kcal/mol; in that of GGATACACGTGTTTTA, 0.08 kcal/mol. In the case of GGAATCACGTGAGGAG it was 0.2 kcal/mol; in that of CAATTCACGTGTTGGT, 0.35 kcal/mol; in that of GGTAACACGTGAATAG, 0.4 kcal/mol. In the case of TAGTTCACGTGTTACG it was 0.35 kcal/mol. In the case of TGTGTCACGTGGATTC, the “relative binding free energy” value came out at 0.16 kcal/mol. In the case of ATTCTCACGTGTGTAT it was 0.18 kcal/mol; in that of GTGTACACGTGGAAGA, 0.2 kcal/mol.

For TGGTTCACGTGCTCGG, the “relative binding free energy” value came to 0.2 kcal/mol. With CTAATCACGTGGTGGG the figure was 0.12 kcal/mol. In the case of TGTTGCACGTGGGACT it was -0.16 kcal/mol; in that of GCGGGCACGTGAGTGT, 0.18 kcal/mol; in that of TGCGTCACGTGATTCG, 0.2 kcal/mol. Regarding CGGGGCACGTGATTAG, the “relative binding free energy” value is -0.04 kcal/mol. With GGTGCCACGTGAGTTA, the “relative binding free energy” value came out at 0.16 kcal/mol.

Turning to GAGTTCACGTGCATGT, the “relative binding free energy” value is 0.41 kcal/mol. In the case of TTTTGCACGTGGATGC it was 0.13 kcal/mol.

On to TAGTGCACGTGGGAAT, for which the “relative binding free energy” value was -0.04 kcal/mol.

Turning to AAGTTCACGTGTGTCG, the “relative binding free energy” value is 0.26 kcal/mol. With GTACACACGTGGGTTT, the “relative binding free energy” value was -0.13 kcal/mol. In the case of GTTCGCACGTGTTGAG it was -0.08 kcal/mol; in that of AATCGCACGTGTGTGG, 0 kcal/mol; in that of TTTTTCACGTGCTGAA, 0.21 kcal/mol.

Turning to CTTCGCACGTGGTAGG, the “relative binding free energy” value was -0.17 kcal/mol.

GGCGACACGTGTGGAG: the “relative binding free energy” value came to 0.16 kcal/mol. In the case of TCTTTCACGTGTTATC it was 0.3 kcal/mol; in that of TGTGGCACGTGTGAAG, 0.04 kcal/mol; in that of TGGTGCACGTGGTGAT, -0.12 kcal/mol. In the case of TTTTTCACGTGAGGTT it was 0.32 kcal/mol; in that of TTGTTCACGTGTGATA, 0.27 kcal/mol; in that of TTAAGCACGTGAAGGA, 0.29 kcal/mol.

As for AGTGTCACGTGGGCAC, the “relative binding free energy” value was -0.06 kcal/mol. With GGGAGCACGTGGAATA the figure was 0.11 kcal/mol. With TATTACACGTGTTTCT the figure was 0.22 kcal/mol; with GGTGCCACGTGCGTGT, -0.01 kcal/mol.

With GGACGCACGTGTTGTA, the “relative binding free energy” value is -0.01 kcal/mol.

On to GTATGCACGTGAAGGC, for which the “relative binding free energy” value was 0.4 kcal/mol. In the case of GGTGTCACGTGAAGTT it was 0.31 kcal/mol; in that of TTGGGCACGTGCGTGT, -0.24 kcal/mol; in that of CAGTGCACGTGGTGTA, -0.06 kcal/mol. On to GAGTTCACGTGCGGTT, for which the “relative binding free energy” value was 0.25 kcal/mol. On to AGCTTCACGTGTCTGT, for which the “relative binding free energy” value came out at 0.38 kcal/mol. In the case of CGGTGCACGTGAGTAA it was 0.19 kcal/mol; in that of AACTGCACGTGCGGGT, -0.06 kcal/mol.

On to GGGGGCACGTGCGTGG, for which the “relative binding free energy” value was -0.23 kcal/mol. For TCTTACACGTGTTTGT, the “relative binding free energy” value was 0.11 kcal/mol. On to CGTTACACGTGCGGGA, for which the “relative binding free energy” value amounted to 0.07 kcal/mol. With AGTTACACGTGGATTG the figure was 0.09 kcal/mol; with TTGGTCACGTGTGTTA, 0.17 kcal/mol; with ATTTGCACGTGGTCGA, 0.03 kcal/mol. In the case of ATTTACACGTGAAGGG it was 0.38 kcal/mol; in that of GCGATCACGTGAGGGG, 0.33 kcal/mol; in that of GTAGGCACGTGTGGCC, -0.13 kcal/mol.

With GGGATCACGTGTATCG, the “relative binding free energy” value amounted to 0.17 kcal/mol. In the case of TGTACCACGTGGTTGA, the “relative binding free energy” value was -0.14 kcal/mol. With TAAAACACGTGTTTGG the figure was -0.21 kcal/mol. In the case of TGGCGCACGTGGGGCG it was -0.21 kcal/mol.
